According to the supplement of paper PMC12632987:
In all, about 4,500 sequences were measured (“median log2 fold change of GCK-ALFA target abundance (FLAG IP / Myc IP barcode read proportion)”: median about 0.078, lowest 2% from about -0.6 on). This is one part of the list.

B1: GBRAP_26_5492 (protein)
chain: FVEKVIKELEKRTREILKDESEDLRAAVIAEAIDLLLEAAEEFEKNLDDEEKQEKAIKEATEELRKELEDFGLSEEKIKKLVEALREAMEAIKAALQAER
B2: GBRAP_195_5406 (protein)
chain: KKVESKVLRITASDTEEEILEKIEKIVREVKEKTNADLVLVVARDPSVPEETVLKAVKEAEKKYPSIKITVEIFDDISLPLETLERFAEMERLNLEEEKE
B3: GBRAP_48_5837 (protein)
chain: SEEKKEKAIEEILKIIEETAKLLEEAEKEGLSEAAFEAILIDAAEEMKEVLDKYLGLGEAWDALPLEERLKIVRELVETYREKGREAAKKKIREVIEELE
B4: GBRAP_80_6790 (protein)
chain: AEERLKKHLEEIAKLDPEIAKKVEEIIKIAKSLGVSKETLAEFAEAIAKLLKVDKEKAREIVEETLEELEEEKEEGNTANAEATLRVHAGEALLEVEELE
B5: GBRAP_57_6460 (protein)
chain: MSPLEKAIKHFEKAIALVKAGAPLEEILAEVQKGLDHLDAATLRDIALLLDPEAPADMSAEEAKAHILELVRRALEEEGREAALRMLELMLGQVEMDALE
B6: GBRAP_166_4987 (protein)
chain: MQEEIVEKTKKEIDELAEKMKTANKEEQTELIIEMAEKIAEAKKAGISEEKLLELVEYALKLVKELGLSVKVAAGIIEEVAEFDEEMREKIRKIAEKVEK
B7: GBRAP_78_6681 (protein)
chain: KVEEELEKAIEELNKAAKLLSKMKTEEALDILGKVIDAASTVEEAYFGEANLEDLEKALKTAEEALKEVEKIDTEEAKKVAEELKKAIEYIKKAIELLKK
B8: GBRAP_52_6245 (protein)
chain: MRERLRALAEELLALVKAGRLEEARALAKRIAEELDEEELRLFIEEFARLAAEARREDIDAVWRATEILAEALEAAGKPEILVDDLEAETARAAVEVEAR
B9: GBRAP_9_7141 (protein)
chain: MEEVLKKLIELAEEAKEDALKVAPEEKKPIVEKSFNEFIEELKKLLEDKNTTKEEIKETVEKGIKKIKETFKKNFDPETYKQLEAIILTFEVEAEEIIEE
B10: GBRAP_52_6222 (protein)
chain: SAEEARALAEEIVRTVREEGVEAAVARLKELAAAHSPELVAAVLAEIVRLAEGESLETAEALLDAVLAAEDALEAAGVSEADVSDAIAGLAAVAVKLEAA
B11: GBRAP_35_5617 (protein)
chain: EIDEETTEMLVAVIEDLTLAVPDLPVETLVQMANQLIESARELGKELKDKPEQLERLAKALEKLRDAIEKHHGDDPLAQETLKKIEKAIEELKKAAKEAK
B12: GBRAP_160_4405 (protein)
chain: SESFEKLKKEVKEIFEETLKLIEGQTPEEQKVIVRVSLGEILLLAFENEEVSDEQEEELAKILDEAEKRIEKAIEEGEEAVKEEIKEAKEKVLKFIESLK
B13: GBRAP_160_4573 (protein)
chain: SENLEKLIKEIREITDEAVEFLEGQSFAERLAVVRVAVGDILLLLEENEEVSEEVLEKADEIGDELIATIEANPDLTAAEIQALLREATEKIIKLIKEEE
B14: GBRAP_125_3131 (protein)
chain: SMEEILENLAVFLKALGFSEDDIEEAVEEARKHGIKGTMYAIALALGEEELAELVEKLTEEEVKEILKKLKEELEKNPDLTPEEVIELFKKLAEEVLKSR
B15: GBRAP_78_6645 (protein)
chain: EIEELIDKAIEHLSKAAKLAKQLPEDQRNELLYHIVEAESYLLLSEEEGFDLELLEKALEELEKAKELVKKLDSPVAPQILEELEKAIELVKKAIKLKKE
B16: GBRAP_9_7116 (protein)
chain: MAVDKATLAAAVADAEASLKALAADLEDPAVAAIVDAAIAEMKALVAVEGITLEELEERLDAIVAAATARAKAEVSPEIANALEAELLTEREAILEAVEA
B17: GBRAP_52_6043 (protein)
chain: MEEEMRKLAEEILALYKAGKREEAKALIKEVVETKSEEELKLLGEKLAELAKEAPPEELDYYMEAAFDLADALEEAGYDEVLADDLEARVAAAAVENLKK
B18: GBRAP_166_4947 (protein)
chain: SLEEIVEETRKFIEELAEKMKNANPEERLDIYAEIAEKIREAKEKGVPKEEILELIRLALELTKEAGGDVDQLVGVLHMFVDLSEEERDEVEKIAEEVKK
B19: GBRAP_160_4129 (protein)
chain: KEELKKLIEEIREITEEAIKMIEGETVENAKVIAKVALGEIIMLAESNEAVSEELEEKIDEIADEAEEYLEENPDLTVEEIKELLREAAEKVIELVKEEI
B20: GBRAP_80_6816 (protein)
chain: MEEEIEKALKEIEKIDPELAKKVREAVEIAKELGVPEELLAALVRAIAELAKIDPEKARKIVEELLKRLKEAKAAGDLEAAREAIEDATAEALEAVMDLE
B21: GBRAP_14_3861 (protein)
chain: MEALIKAVEETAESTKELVAEIAPEHAEEISAKVEELAKRIIEKIKEEDLDIEEVEELVDEAAAELAAWLAAHGYLSPTEIAALRAHILNEALLRLEEIE
B22: GBRAP_166_4965 (protein)
chain: MEEEIVEEFKKYLEELKEKMKEANYEEKLELLAEAAEKLREAKEAGISDEKLRELIRYLIELAREVGLSDSDVYGALSILADLDEEEIDILEEALEEVRK
B23: GBRAP_160_4284 (protein)
chain: EEEAEKLKEEVEEIFEEAKEMMKGEDQANVVTIVRVAGGEVAMALFESPIATDELVDKALEIMDELAETIAANPDLTDEEREELLEEAREKILKAIEESA
B24: GBRAP_11_2915 (protein)
chain: KKEALKEIAKLAEELVKALKELKKKGVDDKELQEKALKLAEELLKLVKETMDEESADLAKELVKALKEAKKDPKNAEQYVNEALAIAEVLLGQALLEIEE
B25: GBRAP_128_3217 (protein)
chain: STEEVVKQVEELLEKIKKADEEEAKKIAKELAELILSSSEEAAEAAAEKIEKLAPELSEEDLEILMKEFVEAAKKTDTPVSLVLLDIAVELGEEILEKEE
B26: GBRAP_83_6889 (protein)
chain: AEEITVGAAADHVAEAVAAAGDLAKEEGYDVTLDLAVTPESVPALEAGLDALAAAGVKVDLRVTVVAPTAEEAEATAARIRAHAAASGAARSLTVETEVV
B27: GBRAP_55_6429 (protein)
chain: SEDEEIEELIAETNTDILLAHADDPEALRAAAEAIAKSVEKVKLIIRREDIEDEESAERVVRAVRVMAEVAKELGKELEVTYIDLPEELVRRIEEAIAAV
B28: GBRAP_128_3308 (protein)
chain: MNEELLKKAEELLKALEKADEATAAELTREIAALLSEASPEEQEKIAELFEKALKKLSAAKLDVVADTLRALIPEADPATAEVLADLEVEALNEAEEKEE
B29: GBRAP_43_5797 (protein)
chain: MKELVEGTLDFARTALETPEISDETKAAIVEHAVEVAIDEGVLTPEQLRELLEALEASVSPETAAAALERILAIARELGAPAELVAIVEEALARARAKLA

Target: GABARAP, O95166
Assay: median log2 fold change of GCK-ALFA target abundance (FLAG IP / Myc IP barcode read proportion) (log2 ratio); each designed protein is fused to an ALFA-tag nanobody in HEK293 cells to bring the named protein to FLAG-tagged glucokinase (GCK); Myc marks an untargeted standard; higher = target protein stabilised (more abundant)
Conditions: target protein: 3xFLAG-MCP-GCK-ALFA reporter; HEK293 landing pad (RPLP)
Protocol: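 LABEL-seq trans screen in HEK293 landing-pad cells. Each de novo designed 100-aa effector handle, binding the indicated effector (E3 ligase, DUB or autophagy protein), is fused to a constant NbALFA target handle and induced with 2 ug/mL doxycycline. A FLAG-MCP-GCK-ALFA target and a Myc-MCP standard reporter were transfected, and after 48 h circRNA barcodes were recovered by anti-FLAG and anti-Myc IP and sequenced. The value is the median across barcodes (at least 3 per design) of log2(FLAG/Myc read-proportion ratio), with the two transfection replicates pooled. Negative values mean degradation and positive values mean stabilisation of the target.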

Sequence of GABARAP, O95166 (O95166 whole entry, the tested form may be a part): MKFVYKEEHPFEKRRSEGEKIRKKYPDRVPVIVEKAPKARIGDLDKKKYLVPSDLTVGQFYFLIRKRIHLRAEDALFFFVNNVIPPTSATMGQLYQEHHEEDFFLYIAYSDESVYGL

| Binder | median log2 fold change |
| --- | --- |
| B1 | 0.122 |
| B2 | 0.233 |
| B3 | 0.133 |
| B4 | 0.101 |
| B5 | 0.278 |
| B6 | 0.341 |
| B7 | 0.367 |
| B8 | 0.122 |
| B9 | 0.328 |
| B10 | 0.141 |
| B11 | 0.243 |
| B12 | -0.218 |
| B13 | -0.0191 |
| B14 | 0.0523 |
| B15 | -0.00333 |
| B16 | 0.184 |
| B17 | -0.047 |
| B18 | 0.151 |
| B19 | 0.0536 |
| B20 | 0.128 |
| B21 | 0.203 |
| B22 | 0.00611 |
| B23 | -0.462 |
| B24 | 0.267 |
| B25 | -0.19 |
| B26 | 0.0536 |
| B27 | -0.325 |
| B28 | 0.254 |
| B29 | 0.088 |
